# Experimental data: PMC12820563
# The list shows a part of the results. The list includes weakly bound sequences.
# Target: T1, MBP-FoxP3dN (UniProt Q99JB6)
# T1 sequence: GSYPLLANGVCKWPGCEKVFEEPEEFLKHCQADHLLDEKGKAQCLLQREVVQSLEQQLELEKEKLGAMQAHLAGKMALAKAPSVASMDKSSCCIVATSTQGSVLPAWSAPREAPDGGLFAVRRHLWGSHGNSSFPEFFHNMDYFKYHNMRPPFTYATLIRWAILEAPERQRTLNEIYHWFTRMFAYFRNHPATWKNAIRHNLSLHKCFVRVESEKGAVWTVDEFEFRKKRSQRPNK
# Test: PD-seq (MBP pull-down with sequencing)
# Details: 20 mM Tris-HCl pH 7.5, 100 mM NaCl, 1.5 mM MgCl2, 0.4 uM protein, 0.1 uM dsDNA library, 30 min, room temperature, amylose pull-down; high values mean tight binding; double strand, one strand shown
row,Sequence,binding signal (RPM ratio (pull-down/input))
1,GATGATTGTTCTCCCAGCTGATGAATTAACCCATTCGAGTAAACAAATTTTCCTAATCTTTCTGTTCAAGCGCCATCTAC,0.277
2,GATGATTGTTCTCCCAGCTGATGAATTTCCTCGGTCGAGTAAACAAATTTTCCTAATCTTTCTGTTCAAGCGCCATCTAC,0.156
3,GATGATTGTTCTCCCAGCTGATGAATTAATCCGCTCGAGTAAACAAATTTTCCTAATCTTTCTGTTCAAGCGCCATCTAC,0.237
4,GATGATTGTTCTCCCAGCTGATGAATTTCTGAAATCGAGTAAACAAATTTTCCTAATCTTTCTGTTCAAGCGCCATCTAC,0.238
5,GATGATTGTTCTCCCAGCTGATGAATTCGCGTGCTCGAGTAAACAAATTTTCCTAATCTTTCTGTTCAAGCGCCATCTAC,1.27
6,GATGATTGTTCTCCCAGCTGATGAATTGGGCACCTCGAGTAAACAAATTTTCCTAATCTTTCTGTTCAAGCGCCATCTAC,0.839
7,GATGATTGTTCTCCCAGCTGATGAATTATAGATGTCGAGTAAACAAATTTTCCTAATCTTTCTGTTCAAGCGCCATCTAC,0.554
8,GATGATTGTTCTCCCAGCTGATGAATTGACAAGATCGAGTAAACAAATTTTCCTAATCTTTCTGTTCAAGCGCCATCTAC,0.29
9,GATGATTGTTCTCCCAGCTGATGAATTAACCGGCTCGAGTAAACAAATTTTCCTAATCTTTCTGTTCAAGCGCCATCTAC,0.172
10,GATGATTGTTCTCCCAGCTGATGAATTGCTAAGATCGAGTAAACAAATTTTCCTAATCTTTCTGTTCAAGCGCCATCTAC,0.398
11,GATGATTGTTCTCCCAGCTGATGAATTTTTGGTATCGAGTAAACAAATTTTCCTAATCTTTCTGTTCAAGCGCCATCTAC,0.444
12,GATGATTGTTCTCCCAGCTGATGAATTCCCATTGTCGAGTAAACAAATTTTCCTAATCTTTCTGTTCAAGCGCCATCTAC,0.454
13,GATGATTGTTCTCCCAGCTGATGAATTCGCTATCTCGAGTAAACAAATTTTCCTAATCTTTCTGTTCAAGCGCCATCTAC,1.05
14,GATGATTGTTCTCCCAGCTGATGAATTCCGTGCGTCGAGTAAACAAATTTTCCTAATCTTTCTGTTCAAGCGCCATCTAC,0.72
15,GATGATTGTTCTCCCAGCTGATGAATTGAGGCGATCGAGTAAACAAATTTTCCTAATCTTTCTGTTCAAGCGCCATCTAC,1.28
16,GATGATTGTTCTCCCAGCTGATGAATTACTAGACTCGAGTAAACAAATTTTCCTAATCTTTCTGTTCAAGCGCCATCTAC,0.23
17,GATGATTGTTCTCCCAGCTGATGAATTCAAGGGGTCGAGTAAACAAATTTTCCTAATCTTTCTGTTCAAGCGCCATCTAC,0.252
18,GATGATTGTTCTCCCAGCTGATGAATTCCGTTCGTCGAGTAAACAAATTTTCCTAATCTTTCTGTTCAAGCGCCATCTAC,0.528
19,GATGATTGTTCTCCCAGCTGATGAATTTGTTATGTCGAGTAAACAAATTTTCCTAATCTTTCTGTTCAAGCGCCATCTAC,6.84
20,GATGATTGTTCTCCCAGCTGATGAATTGGGACCCTCGAGTAAACAAATTTTCCTAATCTTTCTGTTCAAGCGCCATCTAC,0.385
21,GATGATTGTTCTCCCAGCTGATGAATTGACAGAGTCGAGTAAACAAATTTTCCTAATCTTTCTGTTCAAGCGCCATCTAC,0.266

row,Sequence,binding signal (RPM ratio (pull-down/input))
1,GATGATTGTTCTCCCAGCTGATGAATTAGTGCCTTCGAGTAAACAAATTTTCCTAATCTTTCTGTTCAAGCGCCATCTAC,2.8
2,GATGATTGTTCTCCCAGCTGATGAATTTACTTATTCGAGTAAACAAATTTTCCTAATCTTTCTGTTCAAGCGCCATCTAC,2.26
3,GATGATTGTTCTCCCAGCTGATGAATTTCAACCATCGAGTAAACAAATTTTCCTAATCTTTCTGTTCAAGCGCCATCTAC,0.369
4,GATGATTGTTCTCCCAGCTGATGAATTCGTTCCGTCGAGTAAACAAATTTTCCTAATCTTTCTGTTCAAGCGCCATCTAC,0.302
5,GATGATTGTTCTCCCAGCTGATGAATTTTATATATCGAGTAAACAAATTTTCCTAATCTTTCTGTTCAAGCGCCATCTAC,1.65
6,GATGATTGTTCTCCCAGCTGATGAATTAGCTATCTCGAGTAAACAAATTTTCCTAATCTTTCTGTTCAAGCGCCATCTAC,1.22
7,GATGATTGTTCTCCCAGCTGATGAATTTTTGTGGTCGAGTAAACAAATTTTCCTAATCTTTCTGTTCAAGCGCCATCTAC,0.472
8,GATGATTGTTCTCCCAGCTGATGAATTTAAATTATCGAGTAAACAAATTTTCCTAATCTTTCTGTTCAAGCGCCATCTAC,0.63
9,GATGATTGTTCTCCCAGCTGATGAATTCGTTTGGTCGAGTAAACAAATTTTCCTAATCTTTCTGTTCAAGCGCCATCTAC,3.98
10,GATGATTGTTCTCCCAGCTGATGAATTACGCTTCTCGAGTAAACAAATTTTCCTAATCTTTCTGTTCAAGCGCCATCTAC,2.19
11,GATGATTGTTCTCCCAGCTGATGAATTTATGTTGTCGAGTAAACAAATTTTCCTAATCTTTCTGTTCAAGCGCCATCTAC,4.93
12,GATGATTGTTCTCCCAGCTGATGAATTGAGTAGTTCGAGTAAACAAATTTTCCTAATCTTTCTGTTCAAGCGCCATCTAC,0.963
13,GATGATTGTTCTCCCAGCTGATGAATTCGTGCTATCGAGTAAACAAATTTTCCTAATCTTTCTGTTCAAGCGCCATCTAC,0.826
14,GATGATTGTTCTCCCAGCTGATGAATTGTGGTACTCGAGTAAACAAATTTTCCTAATCTTTCTGTTCAAGCGCCATCTAC,1.06
15,GATGATTGTTCTCCCAGCTGATGAATTCGCGCAATCGAGTAAACAAATTTTCCTAATCTTTCTGTTCAAGCGCCATCTAC,3.15
16,GATGATTGTTCTCCCAGCTGATGAATTTACTTAATCGAGTAAACAAATTTTCCTAATCTTTCTGTTCAAGCGCCATCTAC,0.407
17,GATGATTGTTCTCCCAGCTGATGAATTGCCAGGATCGAGTAAACAAATTTTCCTAATCTTTCTGTTCAAGCGCCATCTAC,0.413
18,GATGATTGTTCTCCCAGCTGATGAATTAGCCACCTCGAGTAAACAAATTTTCCTAATCTTTCTGTTCAAGCGCCATCTAC,0.858
19,GATGATTGTTCTCCCAGCTGATGAATTAAGTCATTCGAGTAAACAAATTTTCCTAATCTTTCTGTTCAAGCGCCATCTAC,1.01
20,GATGATTGTTCTCCCAGCTGATGAATTGACGCATTCGAGTAAACAAATTTTCCTAATCTTTCTGTTCAAGCGCCATCTAC,5.74
21,GATGATTGTTCTCCCAGCTGATGAATTCCGAGCATCGAGTAAACAAATTTTCCTAATCTTTCTGTTCAAGCGCCATCTAC,0.611

row,Sequence,binding signal (RPM ratio (pull-down/input))
1,GATGATTGTTCTCCCAGCTGATGAATTGTTCGCTTCGAGTAAACAAATTTTCCTAATCTTTCTGTTCAAGCGCCATCTAC,0.439
2,GATGATTGTTCTCCCAGCTGATGAATTAACTCTGTCGAGTAAACAAATTTTCCTAATCTTTCTGTTCAAGCGCCATCTAC,0.263
3,GATGATTGTTCTCCCAGCTGATGAATTCGCTGGTTCGAGTAAACAAATTTTCCTAATCTTTCTGTTCAAGCGCCATCTAC,0.785
4,GATGATTGTTCTCCCAGCTGATGAATTGGTCTACTCGAGTAAACAAATTTTCCTAATCTTTCTGTTCAAGCGCCATCTAC,0.665
5,GATGATTGTTCTCCCAGCTGATGAATTTCTTCGATCGAGTAAACAAATTTTCCTAATCTTTCTGTTCAAGCGCCATCTAC,0.187
6,GATGATTGTTCTCCCAGCTGATGAATTACAAGTATCGAGTAAACAAATTTTCCTAATCTTTCTGTTCAAGCGCCATCTAC,0.725
7,GATGATTGTTCTCCCAGCTGATGAATTTTTAGTGTCGAGTAAACAAATTTTCCTAATCTTTCTGTTCAAGCGCCATCTAC,0.426
8,GATGATTGTTCTCCCAGCTGATGAATTTCACGAATCGAGTAAACAAATTTTCCTAATCTTTCTGTTCAAGCGCCATCTAC,0.212
9,GATGATTGTTCTCCCAGCTGATGAATTTCAACCTTCGAGTAAACAAATTTTCCTAATCTTTCTGTTCAAGCGCCATCTAC,0.26
10,GATGATTGTTCTCCCAGCTGATGAATTGTTCGTGTCGAGTAAACAAATTTTCCTAATCTTTCTGTTCAAGCGCCATCTAC,0.582
11,GATGATTGTTCTCCCAGCTGATGAATTGGTATGTTCGAGTAAACAAATTTTCCTAATCTTTCTGTTCAAGCGCCATCTAC,2.35
12,GATGATTGTTCTCCCAGCTGATGAATTGAACCCCTCGAGTAAACAAATTTTCCTAATCTTTCTGTTCAAGCGCCATCTAC,0.277
13,GATGATTGTTCTCCCAGCTGATGAATTTATGCAGTCGAGTAAACAAATTTTCCTAATCTTTCTGTTCAAGCGCCATCTAC,1.1
14,GATGATTGTTCTCCCAGCTGATGAATTCTTTAAGTCGAGTAAACAAATTTTCCTAATCTTTCTGTTCAAGCGCCATCTAC,0.174
15,GATGATTGTTCTCCCAGCTGATGAATTTAACGCTTCGAGTAAACAAATTTTCCTAATCTTTCTGTTCAAGCGCCATCTAC,0.534
16,GATGATTGTTCTCCCAGCTGATGAATTCCAGTAGTCGAGTAAACAAATTTTCCTAATCTTTCTGTTCAAGCGCCATCTAC,0.339
17,GATGATTGTTCTCCCAGCTGATGAATTCCCCGCCTCGAGTAAACAAATTTTCCTAATCTTTCTGTTCAAGCGCCATCTAC,0.403
18,GATGATTGTTCTCCCAGCTGATGAATTAACGCTGTCGAGTAAACAAATTTTCCTAATCTTTCTGTTCAAGCGCCATCTAC,0.621
19,GATGATTGTTCTCCCAGCTGATGAATTGACGAAGTCGAGTAAACAAATTTTCCTAATCTTTCTGTTCAAGCGCCATCTAC,0.223
20,GATGATTGTTCTCCCAGCTGATGAATTCCTGGTGTCGAGTAAACAAATTTTCCTAATCTTTCTGTTCAAGCGCCATCTAC,0.321
21,GATGATTGTTCTCCCAGCTGATGAATTGAGTGAATCGAGTAAACAAATTTTCCTAATCTTTCTGTTCAAGCGCCATCTAC,0.333
